{"source": "the supplement of paper PMC8728848", "assay_in_all_cases": "glycan array binding signal (z-score within array); higher = stronger binding", "details_in_all_cases": "glycan notation: IUPAC condensed, linker removed", "key": {"[1]": {"target": "Neu5Ac(a2-3)Gal(b1-4)GlcNAc(b1-2)[Neu5Ac(a2-3)Gal(b1-4)GlcNAc(b1-6)]Man(a1-6)[Neu5Ac(a2-3)Gal(b1-4)GlcNAc(b1-2)Man(a1-3)]Man(b1-4)GlcNAc(b1-4)GlcNAc", "procedure,_shortened": "(§1)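 From the Consortium for Functional Glycomics database, 3228 arrays were curated, keeping only those whose protein sequence was available. Binding is given as a within-array Z-score averaged across arrays sharing a protein sequence and across linkers. Negative Z-scores can be read as non-binding.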"}, "[2]": {"target": "Neu5Ac(a2-3)Gal(b1-4)GlcNAc(b1-2)[Neu5Ac(a2-3)Gal(b1-4)GlcNAc(b1-6)]Man(a1-6)[Neu5Ac(a2-3)Gal(b1-4)GlcNAc(b1-2)Man(a1-3)][GlcNAc(b1-4)]Man(b1-4)GlcNAc(b1-4)GlcNAc", "procedure,_shortened": "as §1"}, "[3]": {"target": "Neu5Ac(a2-3)Gal(b1-4)GlcNAc(b1-3)Gal", "procedure,_shortened": "as §1"}, "[4]": {"target": "Neu5Ac(a2-3)Gal(b1-4)GlcNAc(b1-3)Gal(b1-3)GlcNAc", "procedure,_shortened": "as §1"}, "[5]": {"target": "Neu5Ac(a2-3)Gal(b1-4)GlcNAc(b1-3)Gal(b1-4)GlcNAc", "procedure,_shortened": "as §1"}, "[6]": {"target": "Neu5Ac(a2-3)Gal(b1-4)GlcNAc(b1-3)Gal(b1-4)GlcNAc(b1-2)Man(a1-3)[Neu5Ac(a2-3)Gal(b1-4)GlcNAc(b1-3)Gal(b1-4)GlcNAc(b1-2)Man(a1-6)]Man(b1-4)GlcNAc(b1-4)GlcNAc", "procedure,_shortened": "as §1"}, "[7]": {"target": "Neu5Ac(a2-3)Gal(b1-4)GlcNAc(b1-3)Gal(b1-4)GlcNAc(b1-3)Gal(b1-4)GlcNAc", "procedure,_shortened": "as §1"}, "[8]": {"target": "Neu5Ac(a2-3)Gal(b1-4)GlcNAc(b1-3)Gal(b1-4)GlcNAc(b1-3)Gal(b1-4)GlcNAc(b1-2)Man(a1-3)[Neu5Ac(a2-3)Gal(b1-4)GlcNAc(b1-3)Gal(b1-4)GlcNAc(b1-3)Gal(b1-4)GlcNAc(b1-2)Man(a1-6)]GalNAc", "procedure,_shortened": "as §1"}, "[9]": {"target": "Neu5Ac(a2-3)Gal(b1-4)GlcNAc(b1-3)Gal(b1-4)GlcNAc(b1-3)GalNAc", "procedure,_shortened": "as §1"}, "[10]": {"target": "Neu5Ac(a2-3)Gal(b1-4)GlcNAc(b1-3)Gal(b1-4)GlcNAc(b1-3)[Neu5Ac(a2-3)Gal(b1-4)GlcNAc(b1-3)Gal(b1-4)GlcNAc(b1-6)]GalNAc", "procedure,_shortened": "as §1"}, "[11]": {"target": "Neu5Ac(a2-3)Gal(b1-4)GlcNAc(b1-3)Gal(b1-4)GlcNAc(b1-6)[Gal(b1-3)]GalNAc", "procedure,_shortened": "as §1"}, "[12]": {"target": "Neu5Ac(a2-3)Gal(b1-4)GlcNAc(b1-3)Gal(b1-4)[Fuc(a1-3)]GlcNAc", "procedure,_shortened": "as §1"}, "[13]": {"target": "Neu5Ac(a2-3)Gal(b1-4)GlcNAc(b1-3)GalNAc", "procedure,_shortened": "as §1"}, "[14]": {"target": "Neu5Ac(a2-3)Gal(b1-4)GlcNAc(b1-3)[Neu5Ac(a2-3)Gal(b1-4)GlcNAc(b1-6)]GalNAc", "procedure,_shortened": "as §1"}, "[15]": {"target": "Neu5Ac(a2-3)Gal(b1-4)GlcNAc(b1-6)GalNAc", "procedure,_shortened": "as §1"}, "[16]": {"target": "Neu5Ac(a2-3)Gal(b1-4)GlcNAc(b1-6)[Gal(b1-3)]GalNAc", "procedure,_shortened": "as §1"}, "[17]": {"target": "Neu5Ac(a2-3)Gal(b1-4)GlcNAc(b1-6)[Neu5Ac(a2-3)Gal(b1-3)]GalNAc", "procedure,_shortened": "as §1"}, "[18]": {"target": "Neu5Ac(a2-3)Gal(b1-4)GlcNAc6S", "procedure,_shortened": "as §1"}, "[19]": {"target": "Neu5Ac(a2-3)Gal(b1-4)[Fuc(a1-3)]GlcNAc", "procedure,_shortened": "as §1"}, "[20]": {"target": "Neu5Ac(a2-3)Gal(b1-4)[Fuc(a1-3)]GlcNAc(b1-2)Man", "procedure,_shortened": "as §1"}, "[21]": {"target": "Neu5Ac(a2-3)Gal(b1-4)[Fuc(a1-3)]GlcNAc(b1-3)Gal", "procedure,_shortened": "as §1"}, "[22]": {"target": "Neu5Ac(a2-3)Gal(b1-4)[Fuc(a1-3)]GlcNAc(b1-3)Gal(b1-4)GlcNAc", "procedure,_shortened": "as §1"}, "[23]": {"target": "Neu5Ac(a2-3)Gal(b1-4)[Fuc(a1-3)]GlcNAc(b1-3)Gal(b1-4)[Fuc(a1-3)]GlcNAc(b1-3)Gal(b1-4)[Fuc(a1-3)]GlcNAc", "procedure,_shortened": "as §1"}, "[24]": {"target": "Neu5Ac(a2-3)Gal(b1-4)[Fuc(a1-3)]GlcNAc(b1-3)GalNAc", "procedure,_shortened": "as §1"}, "[25]": {"target": "Neu5Ac(a2-3)Gal(b1-4)[Fuc(a1-3)]GlcNAc(b1-6)[Gal(b1-3)]GalNAc", "procedure,_shortened": "as §1"}, "[26]": {"target": "Neu5Ac(a2-3)Gal(b1-4)[Fuc(a1-3)]GlcNAc(b1-6)[Neu5Ac(a2-3)Gal(b1-3)]GalNAc", "procedure,_shortened": "as §1"}, "[27]": {"target": "Neu5Ac(a2-3)Gal(b1-4)[Fuc(a1-3)]GlcNAc6S", "procedure,_shortened": "as §1"}, "[28]": {"target": "Neu5Ac(a2-3)Gal6S(b1-4)GlcNAc", "procedure,_shortened": "as §1"}, "[29]": {"target": "Neu5Ac(a2-3)Gal6S(b1-4)[Fuc(a1-3)]GlcNAc", "procedure,_shortened": "as §1"}, "Neu5Ac(a2-3)GalNAc": {"target": "Neu5Ac(a2-3)GalNAc", "procedure,_shortened": "as §1"}, "[30]": {"target": "Neu5Ac(a2-3)GalNAc(b1-4)GlcNAc", "procedure,_shortened": "as §1"}, "[31]": {"target": "Neu5Ac(a2-3)[GalNAc(b1-4)]Gal(b1-4)Glc", "procedure,_shortened": "as §1"}, "[32]": {"target": "Neu5Ac(a2-3)[GalNAc(b1-4)]Gal(b1-4)GlcNAc", "procedure,_shortened": "as §1"}, "[33]": {"target": "Neu5Ac(a2-3)[GalNAc(b1-4)]Gal(b1-4)GlcNAc(b1-3)GalNAc", "procedure,_shortened": "as §1"}, "[34]": {"target": "Neu5Ac(a2-3)[Neu5Ac(a2-6)]GalNAc", "procedure,_shortened": "as §1"}, "Neu5Ac(a2-6)Gal": {"target": "Neu5Ac(a2-6)Gal", "procedure,_shortened": "as §1"}, "[35]": {"target": "Neu5Ac(a2-6)Gal(b1-3)GlcNAc(b1-3)[Gal(b1-4)GlcNAc(b1-6)]Gal(b1-4)Glc", "procedure,_shortened": "as §1"}}, "note": "The list shows a part of the results."}
{"binder": "ACA (Amaranthus caudatus) (protein) MAGLPVIMCLKSNNNQKYLRYQSDNIQQYGLLQFSADKILDPLAQFEVEPSKTYDGLVHIKSRYTNKYLVRWSPNHYWITASANEPDENKSNWACTLFKPLYVEEGNMKKVRLLHVQLGHYTQNYTVGGSFVSYLFAESSQIDTGSKDVFHVIDWKSIFQFPKRYVTFKGNNGKYLGVITINQLPCLQFGYDNLNDPKVAHEMFVTSNGTICIKSTYMNKFWRLSTDDWILVDGNDPRETNEAAALFRSDVHDFNVISLLNMQKTWFIKRFTSGKPGFINCMNAATQNVDETAILEIIELGSNN", "values": [{"measurement": "glycan array binding signal (z-score)", "setting": "[1]", "value": 0.184}, {"measurement": "glycan array binding signal (z-score)", "setting": "[2]", "value": -0.715}, {"measurement": "glycan array binding signal (z-score)", "setting": "[3]", "value": -0.792}, {"measurement": "glycan array binding signal (z-score)", "setting": "[4]", "value": -0.399}, {"measurement": "glycan array binding signal (z-score)", "setting": "[5]", "value": -0.63}, {"measurement": "glycan array binding signal (z-score)", "setting": "[6]", "value": 3.13}, {"measurement": "glycan array binding signal (z-score)", "setting": "[7]", "value": -0.496}, {"measurement": "glycan array binding signal (z-score)", "setting": "[8]", "value": 9.87}, {"measurement": "glycan array binding signal (z-score)", "setting": "[9]", "value": 0.033}, {"measurement": "glycan array binding signal (z-score)", "setting": "[10]", "value": 0.039}, {"measurement": "glycan array binding signal (z-score)", "setting": "[11]", "value": 1.06}, {"measurement": "glycan array binding signal (z-score)", "setting": "[12]", "value": 0.092}, {"measurement": "glycan array binding signal (z-score)", "setting": "[13]", "value": -0.31}, {"measurement": "glycan array binding signal (z-score)", "setting": "[14]", "value": 0.132}, {"measurement": "glycan array binding signal (z-score)", "setting": "[15]", "value": -0.033}, {"measurement": "glycan array binding signal (z-score)", "setting": "[16]", "value": 0.029}, {"measurement": "glycan array binding signal (z-score)", "setting": "[17]", "value": -0.222}, {"measurement": "glycan array binding signal (z-score)", "setting": "[18]", "value": -0.219}, {"measurement": "glycan array binding signal (z-score)", "setting": "[19]", "value": -0.577}, {"measurement": "glycan array binding signal (z-score)", "setting": "[20]", "value": -0.376}, {"measurement": "glycan array binding signal (z-score)", "setting": "[21]", "value": -0.407}, {"measurement": "glycan array binding signal (z-score)", "setting": "[22]", "value": -0.139}, {"measurement": "glycan array binding signal (z-score)", "setting": "[23]", "value": -0.312}, {"measurement": "glycan array binding signal (z-score)", "setting": "[24]", "value": 0.449}, {"measurement": "glycan array binding signal (z-score)", "setting": "[25]", "value": 0.615}, {"measurement": "glycan array binding signal (z-score)", "setting": "[26]", "value": -0.001}, {"measurement": "glycan array binding signal (z-score)", "setting": "[27]", "value": -0.123}, {"measurement": "glycan array binding signal (z-score)", "setting": "[28]", "value": -0.189}, {"measurement": "glycan array binding signal (z-score)", "setting": "[29]", "value": -0.502}, {"measurement": "glycan array binding signal (z-score)", "setting": "Neu5Ac(a2-3)GalNAc", "value": -0.329}, {"measurement": "glycan array binding signal (z-score)", "setting": "[30]", "value": -0.452}, {"measurement": "glycan array binding signal (z-score)", "setting": "[31]", "value": -0.452}, {"measurement": "glycan array binding signal (z-score)", "setting": "[32]", "value": -0.069}, {"measurement": "glycan array binding signal (z-score)", "setting": "[33]", "value": 2.5}, {"measurement": "glycan array binding signal (z-score)", "setting": "[34]", "value": -0.305}, {"measurement": "glycan array binding signal (z-score)", "setting": "Neu5Ac(a2-6)Gal", "value": 0.179}, {"measurement": "glycan array binding signal (z-score)", "setting": "[35]", "value": -0.294}]}
